Assay results: the supplement of paper PMC8728848
The other results are listed elsewhere or left out.

Tests used:
Experiment in all cases: glycan array binding signal (z-score within array); higher = stronger binding
Conditions in all cases: glycan notation: IUPAC condensed, linker removed
[1] = biological target: Neu5Ac(a2-6)GlcNAc(b1-4)GlcNAc(b1-4)GlcNAc
Method in brief: (§1)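 Glycan array binding is given as a within-array Z-score, which can be read as non-binding when negative. The arrays, 3228 of them, came from the Consortium for Functional Glycomics database and were retained only where the protein sequence was available. Z-scores were averaged across arrays of the same protein sequence at different concentrations or buffers and across linkers.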

Neu5Ac(a2-8)Neu5Ac = biological target: Neu5Ac(a2-8)Neu5Ac
Method in brief: as §1

[2] = biological target: Neu5Ac(a2-8)Neu5Ac(a2-3)Gal(b1-3)GalNAc(b1-4)[Neu5Ac(a2-3)]Gal(b1-4)Glc
Method in brief: as §1

[3] = biological target: Neu5Ac(a2-8)Neu5Ac(a2-3)Gal(b1-3)GalNAc(b1-4)[Neu5Ac(a2-8)Neu5Ac(a2-3)]Gal(b1-4)Glc
Method in brief: as §1

[4] = biological target: Neu5Ac(a2-8)Neu5Ac(a2-3)Gal(b1-4)Glc
Method in brief: as §1

[5] = biological target: Neu5Ac(a2-8)Neu5Ac(a2-3)Gal(b1-4)GlcNAc
Method in brief: as §1

[6] = biological target: Neu5Ac(a2-8)Neu5Ac(a2-3)[Gal(b1-3)GalNAc(b1-4)]Gal(b1-4)Glc
Method in brief: as §1

[7] = biological target: Neu5Ac(a2-8)Neu5Ac(a2-3)[GalNAc(b1-4)]Gal(b1-4)Glc
Method in brief: as §1

[8] = biological target: Neu5Ac(a2-8)Neu5Ac(a2-8)Neu5Ac
Method in brief: as §1

[9] = biological target: Neu5Ac(a2-8)Neu5Ac(a2-8)Neu5Ac(a2-3)Gal(b1-4)Glc
Method in brief: as §1

[10] = biological target: Neu5Ac(a2-8)Neu5Ac(a2-8)Neu5Ac(a2-3)[Gal(b1-3)GalNAc(b1-4)]Gal(b1-4)Glc
Method in brief: as §1

[11] = biological target: Neu5Ac(a2-8)Neu5Ac(a2-8)Neu5Ac(a2-3)[GalNAc(b1-4)]Gal(b1-4)Glc
Method in brief: as §1

[12] = biological target: Neu5Ac(a2-8)Neu5Ac(a2-8)Neu5Ac(a2-8)Neu5Ac(a2-3)[GalNAc(b1-4)]Gal(b1-4)Glc
Method in brief: as §1

[13] = biological target: Neu5Ac(a2-8)Neu5Gc(a2-3)Gal(b1-4)GlcNAc
Method in brief: as §1

[14] = biological target: Neu5Ac(b2-6)Gal(b1-4)GlcNAc
Method in brief: as §1

Neu5Ac(b2-6)GalNAc = biological target: Neu5Ac(b2-6)GalNAc
Method in brief: as §1

[15] = biological target: Neu5Ac9Ac(a2-3)Gal(b1-3)GlcNAc
Method in brief: as §1

[16] = biological target: Neu5Ac9Ac(a2-3)Gal(b1-4)GlcNAc
Method in brief: as §1

[17] = biological target: Neu5Ac9Ac(a2-6)Gal(b1-4)GlcNAc
Method in brief: as §1

[18] = biological target: Neu5Gc(a2-3)Gal(b1-3)GlcNAc
Method in brief: as §1

[19] = biological target: Neu5Gc(a2-3)Gal(b1-3)[Fuc(a1-4)]GlcNAc
Method in brief: as §1

Neu5Gc(a2-3)Gal(b1-4)Glc = biological target: Neu5Gc(a2-3)Gal(b1-4)Glc
Method in brief: as §1

[20] = biological target: Neu5Gc(a2-3)Gal(b1-4)GlcNAc
Method in brief: as §1

[21] = biological target: Neu5Gc(a2-3)Gal(b1-4)GlcNAc(b1-3)Gal(b1-4)GlcNAc(b1-2)Man(a1-3)[Neu5Gc(a2-3)Gal(b1-4)GlcNAc(b1-3)Gal(b1-4)GlcNAc(b1-2)Man(a1-6)]Man(b1-4)GlcNAc(b1-4)GlcNAc
Method in brief: as §1

[22] = biological target: Neu5Gc(a2-3)Gal(b1-4)[Fuc(a1-3)]GlcNAc
Method in brief: as §1

[23] = biological target: Neu5Gc(a2-6)Gal(b1-4)GlcNAc
Method in brief: as §1

Neu5Gc(a2-6)GalNAc = biological target: Neu5Gc(a2-6)GalNAc
Method in brief: as §1

[24] = biological target: Neu5Gc(a2-8)Neu5Ac(a2-3)Gal(b1-4)GlcNAc
Method in brief: as §1

[25] = biological target: Neu5Gc(a2-8)Neu5Gc(a2-3)Gal(b1-4)GlcNAc
Method in brief: as §1

[26] = biological target: Neu5Gc(a2-8)Neu5Gc(a2-3)Gal(b1-4)GlcNAc(b1-3)Gal(b1-4)GlcNAc
Method in brief: as §1

[27] = biological target: Neu5Gc(a2-8)Neu5Gc(a2-6)Gal(b1-4)GlcNAc
Method in brief: as §1

[28] = biological target: Neu5Gc(b2-6)Gal(b1-4)GlcNAc
Method in brief: as §1

B1: B725 (Bifidobacterium sp) (protein)
chain: MNNTTRAVIATAAIGALLIPLAGCGNTTTSSGKTELTVWSWDASIDRAAKSFMKANPDITVKVSNVGSTEETYTALNNAAQAGSGLPDVTLIEYLAIPQFVHSDTLMDLSKVYNTAKLKDTFTPGTWNSVNINGGLYAMPADSGPMAYFYDKDVFDKAGISEPPTTWDEFYEDAKKIRATGSYITSDSGDAGLFNAMMWAMGGHAYKLNDDKLTINIAKDKGAQRFMDLWQKMRDEDLIDVHTKTWTDDWMKSLGDGSIASLISGAWMANNLLQGVPQATGKFRVALLPTIDGTPINGEYGGSGLAITKKIPDGKLDAAKKFVEYVTTNDEGIDARVSNGSFPATTKTLNQKDFLAKTTLRNTDGSDNEFFGGQKYNEIFSQAAKDVTGKWEFLPFEPYARSVYNDNMGSFFAGKTSFRTAADNWQKALKDYAKDQGFTVQ
glycan array binding signal (z-score) [1]: -0.225 | glycan array binding signal (z-score) (Neu5Ac(a2-8)Neu5Ac): -0.215 | glycan array binding signal (z-score) [2]: -0.231 | glycan array binding signal (z-score) [3]: -0.2 | glycan array binding signal (z-score) [4]: -0.224 | glycan array binding signal (z-score) [5]: -0.223 | glycan array binding signal (z-score) [6]: -0.194 | glycan array binding signal (z-score) [7]: -0.22 | glycan array binding signal (z-score) [8]: -0.223 | glycan array binding signal (z-score) [9]: -0.229 | glycan array binding signal (z-score) [10]: -0.216 | glycan array binding signal (z-score) [11]: -0.225 | glycan array binding signal (z-score) [12]: -0.207 | glycan array binding signal (z-score) [13]: -0.226 | glycan array binding signal (z-score) [14]: -0.218 | glycan array binding signal (z-score) (Neu5Ac(b2-6)GalNAc): -0.24 | glycan array binding signal (z-score) [15]: -0.228 | glycan array binding signal (z-score) [16]: -0.234 | glycan array binding signal (z-score) [17]: -0.219 | glycan array binding signal (z-score) [18]: -0.214 | glycan array binding signal (z-score) [19]: -0.225 | glycan array binding signal (z-score) (Neu5Gc(a2-3)Gal(b1-4)Glc): -0.185 | glycan array binding signal (z-score) [20]: -0.217 | glycan array binding signal (z-score) [21]: -0.186 | glycan array binding signal (z-score) [22]: -0.222 | glycan array binding signal (z-score) [23]: -0.169 | glycan array binding signal (z-score) (Neu5Gc(a2-6)GalNAc): -0.217 | glycan array binding signal (z-score) [24]: -0.201 | glycan array binding signal (z-score) [25]: -0.198 | glycan array binding signal (z-score) [26]: -0.198 | glycan array binding signal (z-score) [27]: -0.219 | glycan array binding signal (z-score) [28]: -0.214
